In patent US10377828B2, “Combination therapy for neoplasia treatment” (Boehringer Ingelheim International GmbH, priority 2013, dated 2019):

B1: IGF mAb_2: antibody against IGF ligand having a heavy chain of SEQ ID NO: 29 and a light chain of SEQ ID NO: 30 (antibody, listed as Homo sapiens)
heavy: QVELVESGGGLVQPGGSLRLSCAASGFTFSNYWMHWVRQAPGKGLEWVSGISGWSSWTYYADSVKGRFTISRDNSKNTLYLQMNSLRAEDTAVYYCARFGIDAYTKVYFDYWGQGTLVTVSS[sequence of human IgG1 constant region not given]
light: DIELTQPPSVSVAPGQTARISCSGDNIPLKYVSWYQQKPGQAPVLVIHDDNKRPSGIPERFSGSNSGNTATLTISGTQAEDEADYYCQSYDYFPKFVVFGGGTKLTVLGQPKAAPSVTLFPPSSEELQANKATLVCLISDFYPGAVTVAWKGDSSPVKAGVETTTPSKQSNNKYAASSYLSLTPEQWKSHRSYSCQVTHEGSTVEKTVAPTECS
modifications: /mol_type=“protein” /organism=“Homo sapiens”
B2: IGF mAb_1: antibody against IGF ligand having a heavy chain of SEQ ID NO: 39 and a light chain of SEQ ID NO: 40; fully human IgG1 (antibody, listed as Homo sapiens)
heavy: QVELVESGGGLVQPGGSLRLSCAASGFTFTSYWMSWVRQAPGKGLELVSSITSYGSFTYYADSVKGRFTISRDNSKNTLYLQMNSLRAEDTAVYYCARNMYTHFDSWGQGTLVTVSS[sequence of human IgG1 constant region not given]
light: DIVLTQPPSVSGAPGQRVTISCSGSSSNIGSNSVSWYQQLPGTAPKLLIYDNSKRPSGVPDRFSGSKSGTSASLAITGLQSEDEADYYCQSRDTYGYYWVFGGGTKLTVLGQPKAAPSVTLFPPSSEELQANKATLVCLISDFYPGAVTVAWKGDSSPVKAGVETTTPSKQSNNKYAASSYLSLTPEQWKSHRSYSCQVTHEGSTVEKTVAPTECS
modifications: /mol_type=“protein” /organism=“Homo sapiens”

Key:
Type in all cases: cell-based, human
[1] = system: DUCaP cells; test: 2D cell proliferation assay (CellTiter-Glo); settings: 10% FCS-containing growth medium, 5 days, single agent or combination
Experimental: (§1) The following method was used to determine the inhibitory effect of IGF ligand-neutralizing mAbs and androgen signaling inhibitors on the growth of prostate cancer cell lines. Assays were performed in cell growth medium containing 10% serum.
(§2) Adherent cells were detached with trypsin/EDTA solution (GIBCO, #043-9031 FU), resuspended in growth medium, centrifuged, resuspended in assay medium (supplemented with 10% heat inactivated FCS and 2 mM L-glutamine) and diluted to 5,000-40,000 cells per mL. 100 μL/well cell suspension was added to each well of a sterile flat-bottom white 96-well plate (PerkinElmer, #6005280) and plates were incubated overnight in a humidified incubator set at +37° C. and 5% CO2. On the next day supernatants were aspirated and 35 μL/well assay medium was added to all wells.
(§3) Serial dilutions of IGF mAb_1 and mAb_2 (1 μM highest concentration), MDV-3100 (10 μM highest concentration), abiraterone acetate (100 μM highest concentration) were prepared on a separate plate in assay medium (no growth factors or hormones supplemented). All agents were tested as single agents or in combination. All samples were tested in triplicate wells (100 μL/well assay). Plates were incubated for 5 days in a humidified incubator at +37° C. and 5% CO2. After this incubation period, CellTiter-Glo buffer, substrate and test plates were equilibrated to RT. CellTiter-Glo is a bioluminescent assay (Promega, #G7571) designed to determine the number of viable cells in culture, in which the generation of a luminescent signal is proportional to the amount of ATP present in cells. 100 μL of freshly mixed CellTiter-Glo reagent was added to each well. After 2 min on an orbital shaker (MTS 2/4, IKA) and 10 min incubation at RT, luminescence was recorded (luminescence reader (Genios Pro, Tecan or Victor X4, Perkin Elmer), integration time 1 sec).

[2] = system: MDA PCa 2b cells; test: 2D cell proliferation assay (CellTiter-Glo); settings: 10% FCS-containing growth medium, 5 days, single agent or combination
Experimental: as §1, §2, §3

[3] = system: VCaP cells; test: 2D cell proliferation assay (CellTiter-Glo); settings: 10% FCS-containing growth medium, 5 days, single agent or combination
Experimental: as §1, §2, §3

[4] = system: VCaP cells; test: 3D soft agar cell proliferation assay; settings: single agent
Experimental: IGF mAb_2 was used for the treatment of VCaP cells in FIG. 2B. FIG. 2C (IGF mAb_1) and FIG. 2D (IGF mAb_2) show the results of MDA PCa 2b cells. […] In a 3D soft agar cell proliferation assay (FIG. 2G), VCaP cells were treated with abiraterone acetate and IGF mAb_2.

[5] = system: VCaP cells; test: Thymidine incorporation assay; settings: 96 hours, 10 μM MDV-3100 and/or 1 μM IGF mAb_1, compared to untreated controls
Experimental: VCaP cells were treated with 1 μM of IGF mAb_1 and 10 μM of MDV-3100 and the combination of both agents and incubated as triplicates in flat-bottom 96-well plates for 96 hours at a density of 5×10^4 cells per well, in the absence of R1881. For the last 24 hours of incubation, ^3H-thymidine (0.4 μCi/well; PerkinElmer, NET355001 MC) was added. Afterwards, the plates were frozen and incubated at −20° C. for 24 h. For harvesting, the plates were thawed and 40 μL Trypsin was added to each well to detach the cell fragments. The suspension was transferred to filter plates. The plates were then washed three times with distilled water and dried at 60° C. for 3 h. 25 μL per well Microscint were added and the proliferation rate was determined by measuring thymidine incorporation (CPM; counts per minute) using a liquid scintillation counter (1450 Microbeta Wallac Trilux, Perkin-Elmer).

[6] = system: VCaP cells; test: Assessment of caspase 3 activity (apoptosis induction); settings: 10 μM MDV-3100 and/or 1 μM mAb, up to 96 hours
Experimental: To acquire live cell images of cells undergoing caspase-3/7 mediated apoptosis upon treatment with different concentrations of MDV-3100, IGF mAb_1, and the combination of both agents, the CellPlayer™ 96-Well Kinetic Caspase-3/7 Reagent (Essen BioScience; #4440) was used. 50000 VCaP cells/100 μl/well were seeded and treated on the next day with the respective concentrations of both agents in growth medium in the absence of R1881. The Caspase-3/7 reagent was diluted to a final concentration of 5 μM in 100 μl per well of growth medium and added to the medium. The plate was placed within a microplate tray into the IncuCyte™ 2011A and 3 images per well were acquired every 4 hours for 7 days using the phase contrast and fluorescence channels.

[7] = system: VCaP cells; test: Cell cycle analysis using flow cytometry (propidium iodide); settings: 24 h, 48 h and 72 h, 10 μM MDV-3100 and/or 1 μM mAb
Experimental: 4×10^5 VCaP cells were treated with 1 μM of IGF mAb_1 and 10 μM of MDV-3100, and the combination of both agents, and incubated in 6-well plates at 37° C. for 24 h, 48 h and 72 h. Subsequently, the supernatant was transferred to FACS tubes, adherent cells were detached with trypsin and collected in the respective FACS tubes. After centrifugation, the medium was discarded and the cell pellet was fixed in ice-cold 70% ethanol for a minimum of 2 h at 4° C. After removing the ethanol entirely, fixed cells were stained with propidium iodide (10 μg/ml; Sigma; P4864-10 mL) in a hypotonic buffer solution (0.1% sodium citrate, 0.1% (v/v) triton X-100, 100 μg/ml DNase-free RNase A) and incubated in the dark at room temperature for 30 minutes. Cells were analyzed using the Becton Dickinson FACS Canto II Flow cytometer and data was evaluated with the FACS Diva software.

[8] = system: AKT phosphorylation, PARP cleavage, p21, CDK2, Cyclin E, PCNA in VCaP cells; test: Western blot time course of AKT phosphorylation, apoptosis and cell cycle regulators
Experimental: One×10^6 and 4×10^6 cells were plated in 6-well plates and 10 cm dishes, respectively, in medium containing 10% […] and AR signaling inhibitor. […] Cell lysates were snap frozen and stored at −80° C.
Western blotting was performed loading 30-50 μg of total protein lysates on a 4-12% Bis-Tris PAG (Bio Rad) and blotting with the Bio Rad trans-Blot® Turbo system using a PVDF membrane. […] Cell cycle regulators and markers of proliferation and apoptosis were analyzed using the following antibodies: p21 Waf1/Cip1 (12D1; #2947, Cell Signaling; 1:1000), CDK2 (78B2; #2546, Cell Signaling; 1:1000), Cyclin E (C-19; sc-198, Santa Cruz; 1:1000), PCNA (#2586, Cell Signaling; 1:2000), and PARP (#9542, Cell Signaling; 1:1000).
Antibody dilutions were prepared in 5% BSA or 5% non-fat dry milk in TBS-0.5% Tween20 (TBS-T). Following washes in TBS-T membranes were incubated with a polyclonal HRP-conjugated goat anti-rabbit secondary antibody (DAKO, #P0448) for 1 hour and after further washes in TBS-T antibody reactivity was detected by means of ECL/Super ECL (GE Healthcare) and exposure on ImageQuant LAS4000. […]

Row | Molecule | effect on 2D cell proliferation (in words) [1] | effect on 2D cell proliferation (in words) [2] | effect on 2D cell proliferation (in words) [3] | inhibition of cell proliferation [4] [%] | reduction of proliferative activity (thymidine incorporation) [5] | induction of caspase 3 activity / apoptosis (in words) [6] | sub-G1 apoptotic cell population [7] | PARP cleavage ([8]; 10 μM MDV-3100 and/or 1 μM IGF mAb_1, 8 h, 24 h, 48 h and 72 h) | AKT phosphorylation (AKT-Ser473) ([8]; Western blot time course up to 120 hours)
1 | B1 | inhibition of cell proliferation | inhibition of cell proliferation | inhibition of cell proliferation | 96 | – | – | – | – | –
2 | B2 | inhibition of cell proliferation | inhibition of cell proliferation | inhibition of cell proliferation | – | approximately 50% | modest increase in apoptosis; also recorded: an increase in apoptotic events | modest increase in apoptosis; also recorded: increases with time | modest increase in apoptosis | blockade of AKT phosphorylation

“Also recorded” adds a separate entry of the source.
